From PMC4336329 (PLoS ONE, 2015)
In all, about 310,000 compounds went through this assay and about 14,000 (4.5%) showed an effect of 50% or more. The effect is printed as a negative number. Some of the results follow.

biological target: human ether-à-go-go-related gene (hERG) potassium channel (human, UniProt Q12809); assay: primary screen, population patch clamp on CHO cells stably expressing hERG
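Note: peak tail current of the secondary pulse compared with the same well before compound.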

Sequence of human ether-à-go-go-related gene (hERG) potassium channel (Q12809 whole entry, looked up): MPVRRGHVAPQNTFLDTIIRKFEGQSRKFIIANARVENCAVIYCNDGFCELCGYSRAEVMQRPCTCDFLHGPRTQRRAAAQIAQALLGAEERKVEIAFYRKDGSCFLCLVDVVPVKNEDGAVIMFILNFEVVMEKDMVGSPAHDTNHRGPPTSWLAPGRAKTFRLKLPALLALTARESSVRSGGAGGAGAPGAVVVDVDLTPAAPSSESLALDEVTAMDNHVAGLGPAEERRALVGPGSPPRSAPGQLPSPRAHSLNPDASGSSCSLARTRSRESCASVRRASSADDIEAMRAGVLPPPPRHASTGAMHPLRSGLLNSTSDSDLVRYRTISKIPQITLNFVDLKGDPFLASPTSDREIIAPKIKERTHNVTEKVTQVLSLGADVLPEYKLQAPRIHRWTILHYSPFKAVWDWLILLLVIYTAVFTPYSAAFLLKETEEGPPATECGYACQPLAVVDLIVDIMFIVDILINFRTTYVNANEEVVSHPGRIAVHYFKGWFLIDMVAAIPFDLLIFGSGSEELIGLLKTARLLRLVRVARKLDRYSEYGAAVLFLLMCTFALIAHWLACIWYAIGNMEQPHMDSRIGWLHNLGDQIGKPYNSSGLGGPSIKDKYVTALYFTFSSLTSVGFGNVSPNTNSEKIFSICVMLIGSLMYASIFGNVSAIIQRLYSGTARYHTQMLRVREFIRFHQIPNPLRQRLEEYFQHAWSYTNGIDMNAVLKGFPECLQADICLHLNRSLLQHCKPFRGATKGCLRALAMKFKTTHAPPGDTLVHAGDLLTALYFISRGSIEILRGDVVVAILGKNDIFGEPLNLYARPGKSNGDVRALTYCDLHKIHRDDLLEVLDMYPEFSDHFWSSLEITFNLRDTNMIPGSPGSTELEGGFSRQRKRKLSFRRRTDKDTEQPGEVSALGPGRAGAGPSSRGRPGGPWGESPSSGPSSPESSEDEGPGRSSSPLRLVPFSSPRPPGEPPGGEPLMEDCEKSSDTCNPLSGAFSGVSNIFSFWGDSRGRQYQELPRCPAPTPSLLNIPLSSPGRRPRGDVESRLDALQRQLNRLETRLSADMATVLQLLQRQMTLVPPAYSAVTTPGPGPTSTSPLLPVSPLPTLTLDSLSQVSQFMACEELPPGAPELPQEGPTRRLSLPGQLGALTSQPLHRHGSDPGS

| SMILES | hERG current change (%, negative = inhibition) at 10uM |
| --- | --- |
| Cc1nc(Nc2nc(CSc3nc4ccccc4[nH]3)cc(=O)[nH]2)nc2ccccc12 | -1.19% |
| COc1cccc(NC(C)C(=O)Nc2cc([N+](=O)[O-])ccc2Cl)c1 (centres unmarked) | 1.44% |
| O=C(Nc1ccc(N2CCCCC2)cc1)c1ccc2c(c1)OCCO2 | -4.14% |
| C/C(=N\O)C1/C(=N/O)CC2C1C2(C)C (centres unmarked) | -0.279% |
| O=C(O)c1cncc(C#CCC2CCCCC2)c1 | -0.778% |
| CC(=O)c1ccc(NC(=O)c2ccccc2Sc2ncnc3sc(C)c(C)c23)cc1 | -24.9% |
| CCOc1cc(C(=O)NC)cc(Br)c1OCc1ccccc1 | 5.9% |
| COc1ccc(CN(CC(=O)NCc2ccc(F)cc2)C(=O)CCC(=O)Nc2cc(C)ccn2)cc1 | -27.4% |
| CCCCOc1ccc(C(C)=O)cc1Cc1c(O)[nH]c(=S)[nH]c1=O | 14.7% |
| O=C(COC(=O)c1cc([N+](=O)[O-])ccc1NCc1ccccc1)NC1CCCc2ccccc21 (centres unmarked) | 15.6% |
| O=C(Nc1cccnc1)c1cccnc1Cl | 4.09% |
| c1ccc(-c2noc(-c3cccnc3)n2)cc1 | -0.69% |
| CN(C)CCCN=Cc1c(O)n(CCc2ccc(F)cc2)c(=O)[nH]c1=O | 15.2% |
| CCN(CC)S(=O)(=O)c1cccc(-c2nnc(SCc3nnc(-c4cccs4)o3)n2N)c1 | -44.3% |
| CCc1ccc(N2C(=O)C3C(C2=O)N2CCCN2C3c2ccccc2)cc1 (centres unmarked) | 18.1% |
| CCOc1ccccc1NC(=O)COn1nnc2ccc(Cl)cc21 | -1.35% |
| S=C(NCCc1ccccc1)NCc1ccccc1Cl | -8.85% |
| CCOc1ccccc1N=CC1=C(O)CC(c2ccccc2)CC1=O (centres unmarked) | 6.05% |
| CN(C)S(=O)(=O)c1cccc(NC(=O)COC(=O)/C=C/c2ccco2)c1 | -26.6% |

| SMILES | hERG current change (%, negative = inhibition) at 10uM |
| --- | --- |
| COC(=O)Cc1c(C)c2ccc(OC3CCCCC3=O)c(C)c2oc1=O (centres unmarked) | 3.77% |
| Cc1ccc(C(=O)C[n+]2cccc3cc(C)ccc32)cc1.[Br-] | -31.7% |
| CCOc1ccc(N2C(=O)CC(Sc3nc4ccc(OCC)cc4s3)C2=O)cc1 (centres unmarked) | 16.9% |
| CC(=O)Nc1ccccc1-c1ccc(C)o1 | 6.02% |
| Cc1ccc(O)c(C(=O)c2cc(C(=O)NCCc3ccccc3)c(=O)n(CCc3ccccc3)c2)c1 | -2.01% |
| Cc1ccc(OCC(=O)NC(=S)Nc2cccc(NC(=O)c3ccc(Cl)cc3Cl)c2)cc1 | 20% |
| CC(OC(=O)c1ccc(Br)c(S(=O)(=O)N2CCOCC2)c1)C(=O)NC1CCCCC1C (centres unmarked) | -49.9% |
| COc1ccccc1/C=N/NC(=O)c1ccc(CN2C(=O)c3cccc4cccc2c34)cc1 | 2.35% |
| Cc1ccc2nc(SCC(=O)NC3CCCC3)[nH]c2c1 | 6.86% |
| CCOc1cc(/C=N/NC(=O)CSc2cccc3cccnc23)ccc1O | 9.6% |
| COc1ccc(CCNC(=O)c2cc3c(=O)n4cccc(C)c4nc3n(CC3CCCO3)c2=N)cc1 (centres unmarked) | -75.2% |
| CC(C)(C)Cc1nnc(NC(=O)c2ccco2)s1 | 5.12% |
| CSc1ccc(S(=O)(=O)Nc2ccc3c4c(cccc24)CC3)cc1 | 3.32% |
| CCOC(=O)N1CCC(=NNC(N)=O)CC1 | 19% |
| O=C1CSC(=Nc2cccc(Cl)c2Cl)N1 | 19.1% |
| COc1ccccc1NC(=S)NNC(=O)c1ccccc1 | -1.04% |
| Cc1ccc(S(=O)(=O)Nc2ccccc2C=Nc2cccc(C)c2C)cc1 | 3.56% |
| c1coc(CNc2nc(-c3cccs3)cs2)c1 | -9.83% |
| NC(N)=N/N=C/c1cccc(Cl)c1Cl | -11.3% |

| SMILES | hERG current change (%, negative = inhibition) at 10uM |
| --- | --- |
| NC(=O)COC(=O)c1ccc(NS(=O)(=O)c2ccc3c(c2)OCCO3)cc1 | 3.37% |
| Cc1c(Cl)cccc1NC(=O)CSC(C)c1nc2ccccc2c(=O)[nH]1 (centres unmarked) | 10.5% |
| Cc1cccc(OCC(=O)N2CCN(C(=O)c3ccco3)CC2)c1 | -6.95% |
| COc1ccc(N2CCN(CCCNC(=O)Cn3c(=O)c4cccn4c4cccnc43)CC2)cc1 | -57.2% |
| CCOc1ccc(C(C)(C)C)cc1S(=O)(=O)N1CC(C)OC(C)C1 (centres unmarked) | -4.79% |
| CCCOc1ccc(N2C(=O)CC(N(CCc3ccc(OC)c(OC)c3)C(=O)c3ccccc3)C2=O)cc1 (centres unmarked) | -74.9% |
| O=C(CCC(=O)N1CCN(c2ccccc2F)CC1)c1ccc(F)cc1 | -35.4% |
| O=C(NN(c1ccccc1)c1ccccc1)c1ccc([N+](=O)[O-])o1 | 1.01% |
| CCCc1nc(SCC(=O)O)c2sc(=S)n(-c3ccccc3)c2n1 | 3.76% |
| CCN1/C(=C\C=C(C(C)=O)C(C)=O)Sc2ccccc21 | -2.64% |
| COc1ccc(NC(=O)c2ccc(S(=O)(=O)N3CCCCCC3)cc2)c(OC)c1 | -8.76% |
| Cc1ccc(COC(=O)c2cc([N+](=O)[O-])ccc2N2CCOCC2)cc1 | -53.7% |
| CC(=O)c1cnc(SCC(=O)O)nc1C | 21.1% |
| CCOC(=O)Cc1cnc(NC(=O)CSc2nc3ncnc(N)c3[nH]2)s1 | 16.6% |
| Cc1c(C(=O)N2CCN(c3ccc(F)cc3)CC2)sc2ncnc(N3CCN(c4ccccn4)CC3)c12 | -65.1% |
| Cc1cc(C)c(S(=O)(=O)N(C)CC(=O)NCCN2CCOCC2)c(C)c1 | 1.24% |
| CCOC(=O)N(C)c1ccc(C(O)(C(=O)OCC)C(F)(F)F)cc1 (centres unmarked) | -2.29% |
| COc1cc2oc3ccc(C#Cc4ccc(N)cc4)cc3c(=O)c2cc1OC | 6.49% |
